# Some of the results follow.
# B1: LecB LY19 (Pseudomonas aeruginosa) (protein)
# chain: MATQGVFTLPANTQFGVTAFANSAGTQTVNVQVNNETVATFTGQSTNNGIIGSKVLNSGGGGKVQILVSVNGRSSDLVSAQVILANELNFALVGSEDSTDNDYNDAVVVINWPLG
# How the values were obtained:
# Assay in all cases: glycan array binding signal (z-score within array); higher = stronger binding
# Settings in all cases: glycan notation: IUPAC condensed, linker removed
# [1] = molecular target: GalNAc(b1-4)GlcNAc(b1-2)Man
# Method in brief: (§1)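 Glycan array binding is given as a within-array Z-score, which can be read as non-binding when negative. The arrays, 3228 of them, came from the Consortium for Functional Glycomics database and were retained only where the protein sequence was available. Z-scores were averaged across arrays of the same protein sequence at different concentrations or buffers and across linkers.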
# [2] = molecular target: GalNAc(b1-4)GlcNAc(b1-2)Man(a1-3)[GalNAc(b1-4)GlcNAc(b1-2)Man(a1-6)]Man(b1-4)GlcNAc(b1-4)GlcNAc
# Method in brief: as §1
# [3] = molecular target: GalNAc(b1-4)GlcNAc(b1-3)GalNAc(b1-4)GlcNAc
# Method in brief: as §1
# GalNAc(b1-4)GlcNAc6S = molecular target: GalNAc(b1-4)GlcNAc6S
# Method in brief: as §1
# GalNAc(b1-6)GalNAc = molecular target: GalNAc(b1-6)GalNAc
# Method in brief: as §1
# GalNAc3S(b1-4)GlcNAc = molecular target: GalNAc3S(b1-4)GlcNAc
# Method in brief: as §1
# GalNAc3S(b1-4)GlcNAc3S = molecular target: GalNAc3S(b1-4)GlcNAc3S
# Method in brief: as §1
# [4] = molecular target: GalNAc3S(b1-4)[Fuc(a1-3)]GlcNAc
# Method in brief: as §1
# GalNAc4S6S(b1-4)GlcNAc = molecular target: GalNAc4S6S(b1-4)GlcNAc
# Method in brief: as §1
# GalNAc6S(b1-4)GlcNAc = molecular target: GalNAc6S(b1-4)GlcNAc
# Method in brief: as §1
# Glc(a1-4)Glc = molecular target: Glc(a1-4)Glc
# Method in brief: as §1
# [5] = molecular target: Glc(a1-4)Glc(a1-4)Glc(a1-4)Glc
# Method in brief: as §1
# Glc(a1-6)Glc(a1-6)Glc = molecular target: Glc(a1-6)Glc(a1-6)Glc
# Method in brief: as §1
# [6] = molecular target: Glc(a1-6)Glc(a1-6)Glc(a1-6)Glc
# Method in brief: as §1
# Glc(b1-4)Glc = molecular target: Glc(b1-4)Glc
# Method in brief: as §1
# Glc(b1-6)Glc = molecular target: Glc(b1-6)Glc
# Method in brief: as §1
# GlcA(b1-3)Gal = molecular target: GlcA(b1-3)Gal
# Method in brief: as §1
# GlcA(b1-3)GlcNAc = molecular target: GlcA(b1-3)GlcNAc
# Method in brief: as §1
# GlcA(b1-6)Gal = molecular target: GlcA(b1-6)Gal
# Method in brief: as §1
# [7] = molecular target: GlcA3S(b1-3)Gal(b1-4)GlcNAc(b1-2)Man
# Method in brief: as §1
# [8] = molecular target: GlcA3S(b1-3)Gal(b1-4)GlcNAc(b1-3)Gal(b1-4)Glc
# Method in brief: as §1
# [9] = molecular target: GlcNAc(a1-3)Gal(b1-4)GlcNAc
# Method in brief: as §1
# [10] = molecular target: GlcNAc(a1-4)Gal(b1-3)GlcNAc
# Method in brief: as §1
# [11] = molecular target: GlcNAc(a1-4)Gal(b1-4)GalNAc
# Method in brief: as §1
# [12] = molecular target: GlcNAc(a1-4)Gal(b1-4)GlcNAc
# Method in brief: as §1
# [13] = molecular target: GlcNAc(a1-4)Gal(b1-4)GlcNAc(b1-3)Gal(b1-4)Glc
# Method in brief: as §1
# [14] = molecular target: GlcNAc(a1-4)Gal(b1-4)GlcNAc(b1-3)Gal(b1-4)GlcNAc
# Method in brief: as §1
# [15] = molecular target: GlcNAc(a1-4)Gal(b1-4)GlcNAc(b1-3)Gal(b1-4)GlcNAc(b1-3)Gal(b1-4)GlcNAc
# Method in brief: as §1
# [16] = molecular target: GlcNAc(a1-4)Gal(b1-4)GlcNAc(b1-3)Gal(b1-4)[Fuc(a1-3)]GlcNAc(b1-3)Gal(b1-4)[Fuc(a1-3)]GlcNAc
# Method in brief: as §1
# [17] = molecular target: GlcNAc(a1-6)Gal(b1-4)GlcNAc
# Method in brief: as §1
# [18] = molecular target: GlcNAc(b1-2)Gal(b1-3)GalNAc
# Method in brief: as §1
# [19] = molecular target: GlcNAc(b1-2)Man(a1-3)[GlcNAc(b1-2)Man(a1-6)]Man(b1-4)GlcNAc(b1-4)GlcNAc
# Method in brief: as §1
# [20] = molecular target: GlcNAc(b1-2)Man(a1-3)[GlcNAc(b1-2)Man(a1-6)]Man(b1-4)GlcNAc(b1-4)[Fuc(a1-6)]GlcNAc
# Method in brief: as §1
# [21] = molecular target: GlcNAc(b1-2)Man(a1-3)[GlcNAc(b1-4)][GlcNAc(b1-2)Man(a1-6)]Man(b1-4)GlcNAc(b1-4)GlcNAc
# Method in brief: as §1
# [22] = molecular target: GlcNAc(b1-2)Man(a1-3)[GlcNAc(b1-4)][GlcNAc(b1-2)Man(a1-6)]Man(b1-4)GlcNAc(b1-4)[Fuc(a1-6)]GlcNAc
# Method in brief: as §1
# [23] = molecular target: GlcNAc(b1-2)[GlcNAc(b1-4)]Man(a1-3)[GlcNAc(b1-2)Man(a1-6)]Man(b1-4)GlcNAc(b1-4)GlcNAc
# Method in brief: as §1
# [24] = molecular target: GlcNAc(b1-2)[GlcNAc(b1-4)]Man(a1-3)[GlcNAc(b1-4)][GlcNAc(b1-2)Man(a1-6)]Man(b1-4)GlcNAc(b1-4)GlcNAc
# Method in brief: as §1
# [25] = molecular target: GlcNAc(b1-2)[GlcNAc(b1-4)]Man(a1-3)[GlcNAc(b1-4)][GlcNAc(b1-2)[GlcNAc(b1-6)]Man(a1-6)]Man(b1-4)GlcNAc(b1-4)GlcNAc
# Method in brief: as §1
# [26] = molecular target: GlcNAc(b1-2)[GlcNAc(b1-4)]Man(a1-3)[GlcNAc(b1-4)][GlcNAc(b1-2)[GlcNAc(b1-6)]Man(a1-6)]Man(b1-4)GlcNAc(b1-4)[Fuc(a1-6)]GlcNAc
# Method in brief: as §1
# [27] = molecular target: GlcNAc(b1-2)[GlcNAc(b1-6)]Man(a1-6)[GlcNAc(b1-2)Man(a1-3)]Man(b1-4)GlcNAc(b1-4)GlcNAc
# Method in brief: as §1
# [28] = molecular target: GlcNAc(b1-2)[GlcNAc(b1-6)]Man(a1-6)[GlcNAc(b1-2)Man(a1-3)]Man(b1-4)GlcNAc(b1-4)[Fuc(a1-6)]GlcNAc
# Method in brief: as §1
# [29] = molecular target: GlcNAc(b1-2)[GlcNAc(b1-6)]Man(a1-6)[GlcNAc(b1-4)][GlcNAc(b1-2)Man(a1-3)]Man(b1-4)GlcNAc(b1-4)GlcNAc
# Method in brief: as §1
# GlcNAc(b1-3)Fuc = molecular target: GlcNAc(b1-3)Fuc
# Method in brief: as §1
# GlcNAc(b1-3)Gal = molecular target: GlcNAc(b1-3)Gal
# Method in brief: as §1
# [30] = molecular target: GlcNAc(b1-3)Gal(b1-3)GalNAc
# Method in brief: as §1
binder,measurement,setting,value
B1,glycan array binding signal (z-score),[1],-0.551
same,glycan array binding signal (z-score),[2],-0.53
same,glycan array binding signal (z-score),[3],-0.259
same,glycan array binding signal (z-score),GalNAc(b1-4)GlcNAc6S,-0.556
same,glycan array binding signal (z-score),GalNAc(b1-6)GalNAc,-0.559
same,glycan array binding signal (z-score),GalNAc3S(b1-4)GlcNAc,-0.557
same,glycan array binding signal (z-score),GalNAc3S(b1-4)GlcNAc3S,-0.556
same,glycan array binding signal (z-score),[4],1.1
same,glycan array binding signal (z-score),GalNAc4S6S(b1-4)GlcNAc,-0.557
same,glycan array binding signal (z-score),GalNAc6S(b1-4)GlcNAc,-0.557
same,glycan array binding signal (z-score),Glc(a1-4)Glc,-0.541
same,glycan array binding signal (z-score),[5],-0.525
same,glycan array binding signal (z-score),Glc(a1-6)Glc(a1-6)Glc,-0.491
same,glycan array binding signal (z-score),[6],-0.506
same,glycan array binding signal (z-score),Glc(b1-4)Glc,-0.503
same,glycan array binding signal (z-score),Glc(b1-6)Glc,-0.502
same,glycan array binding signal (z-score),GlcA(b1-3)Gal,-0.542
same,glycan array binding signal (z-score),GlcA(b1-3)GlcNAc,-0.508
same,glycan array binding signal (z-score),GlcA(b1-6)Gal,-0.525
same,glycan array binding signal (z-score),[7],-0.548
same,glycan array binding signal (z-score),[8],-0.549
same,glycan array binding signal (z-score),[9],0.745
same,glycan array binding signal (z-score),[10],-0.555
same,glycan array binding signal (z-score),[11],-0.475
same,glycan array binding signal (z-score),[12],-0.543
same,glycan array binding signal (z-score),[13],-0.549
same,glycan array binding signal (z-score),[14],-0.524
same,glycan array binding signal (z-score),[15],-0.548
same,glycan array binding signal (z-score),[16],1.73
same,glycan array binding signal (z-score),[17],-0.532
same,glycan array binding signal (z-score),[18],-0.544
same,glycan array binding signal (z-score),[19],0.742
same,glycan array binding signal (z-score),[20],-0.064
same,glycan array binding signal (z-score),[21],-0.547
same,glycan array binding signal (z-score),[22],0.369
same,glycan array binding signal (z-score),[23],-0.398
same,glycan array binding signal (z-score),[24],-0.556
same,glycan array binding signal (z-score),[25],-0.554
same,glycan array binding signal (z-score),[26],0.427
same,glycan array binding signal (z-score),[27],-0.465
same,glycan array binding signal (z-score),[28],1.66
same,glycan array binding signal (z-score),[29],-0.546
same,glycan array binding signal (z-score),GlcNAc(b1-3)Fuc,0.405
same,glycan array binding signal (z-score),GlcNAc(b1-3)Gal,-0.54
same,glycan array binding signal (z-score),[30],-0.542
